Laboratory results reported in publication PMC3804511.
Numbering of substitutions follows the chain as printed. Numbers in names are those of the source. Results are given in words; binding and its absence hold for the method and conditions named. For part of these data: In cells and extracts the contact can be indirect. Some binding calls cover weakened binding; strength is not graded here. Tags and fused reporters may be left off the sequences shown. Values belong to the binder of their own block, whether it stands above or below them.

By UniProt entry, the sequences of proteins in these tests, tags left out. Where a name states a change or a piece, a line headed by the entry shows the natural chain unless it says otherwise. Chains listed by the source or under a name are the forms on record and can include a tag or linker.
His6-Cbk1(251-756, D475A) (P53894, form named): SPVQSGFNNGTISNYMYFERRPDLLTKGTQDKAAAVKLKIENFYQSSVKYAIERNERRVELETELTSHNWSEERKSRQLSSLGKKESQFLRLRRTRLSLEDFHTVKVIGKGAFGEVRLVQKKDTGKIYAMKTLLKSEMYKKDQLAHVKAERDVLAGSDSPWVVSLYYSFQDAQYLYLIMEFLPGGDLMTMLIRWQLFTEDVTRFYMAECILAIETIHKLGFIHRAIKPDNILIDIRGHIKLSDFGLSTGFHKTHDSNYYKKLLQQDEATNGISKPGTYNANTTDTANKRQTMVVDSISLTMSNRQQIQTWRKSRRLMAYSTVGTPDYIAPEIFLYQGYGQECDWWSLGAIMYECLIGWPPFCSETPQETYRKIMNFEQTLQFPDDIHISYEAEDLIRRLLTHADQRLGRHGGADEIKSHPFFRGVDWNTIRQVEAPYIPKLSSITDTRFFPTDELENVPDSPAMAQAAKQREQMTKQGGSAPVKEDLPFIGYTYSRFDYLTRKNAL

Experiments:
[1] = biological target: T1, Hym1 fused to the GAL4 DNA-binding domain (S. cerevisiae) (UniProt P32464); test: two-hybrid; yeast two-hybrid; Kic1 alleles in pGAD-C1 (GAL4 activation domain), Hym1 in pGBD-C1 (GAL4 DNA-binding domain), coexpressed; prey or bait alone as negative controls
T1 sequence: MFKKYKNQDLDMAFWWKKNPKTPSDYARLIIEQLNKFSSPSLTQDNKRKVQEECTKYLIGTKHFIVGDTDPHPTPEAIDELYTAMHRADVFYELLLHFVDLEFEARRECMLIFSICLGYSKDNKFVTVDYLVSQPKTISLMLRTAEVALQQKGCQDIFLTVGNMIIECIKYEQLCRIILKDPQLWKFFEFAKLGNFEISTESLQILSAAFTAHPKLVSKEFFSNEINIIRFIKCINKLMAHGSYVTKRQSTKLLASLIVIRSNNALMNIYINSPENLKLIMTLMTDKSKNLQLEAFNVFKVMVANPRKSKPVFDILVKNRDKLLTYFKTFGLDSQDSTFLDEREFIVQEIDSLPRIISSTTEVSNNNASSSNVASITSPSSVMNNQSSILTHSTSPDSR

[2] = biological target: T2, Hym1-13myc (S. cerevisiae) (UniProt P32464); test: co-IP; yeast cell lysates (bead beating) of strains with both tagged proteins; Hym1-myc immunoprecipitated with anti-c-Myc 9E10 on Dynabeads Protein G, Kic1-HA detected by anti-HA blot; also at 10 min intervals after release from GAL-CDC20 arrest
T2 sequence: T1 sequence

[3] = biological target: T2, Hym1-13myc (S. cerevisiae); test: co-IP; lysates of cells expressing either Kic1-3HA or Hym1-13myc prepared separately, then mixed; Hym1-myc immunoprecipitated, Kic1-HA detected; also with lysates taken at 10 min intervals after release from GAL-CDC20 arrest
[4] = biological target: His6-Cbk1(251-756, D475A) (S. cerevisiae) (UniProt P53894); test: tandem affinity co-purification; His6-Cbk1(251-756, D475A) and GST-Mob2 coexpressed in E. coli from a bicistronic system; Ni-NTA resin followed by glutathione-Sepharose 4B

- binding [1]: binds
B1: Kic1 fused to the GAL4 activation domain (wild type) (enzyme, UniProt P38692 1-1080)
chain: MTTKPQNSKQGLAEGEMDVSSLFKRTEVIGRGKFGVVYKGYNVKTGRVYAIKVLNLDSDSDEVEDVQREIQFLASLKQISNITRYYGSYLKDTSLWIIMEHCAGGSLRSLLRPGKIDEKYIGVIMRELLVALKCIHKDNVIHRDIKAANVLITNEGNVKLCDFGVAAQVNQTSLRRQTMAGTPYWMAPEVIMEGVYYDTKVDIWSLGITTYEIATGNPPYCDVEALRAMQLIIKSKPPRLEDRSYSTSLKEFIALCLDEDPKERLSADDLLKSKFIRAHKATPTSILKELISRYLLFRDKNKNKYKIEGSIPENEPSKPSEAPKPSQNGGGDEAQKSIASNDNEIKRVNEGDVEMKWDFDSLSSSDYIIENNINLDALAEDNNEWATAQHDLFNYAYPDEDSYYFDPTSHNTRPFVYQGTTIGKGYPGTIAQNSTLNAPVTNNYTNSKYPSKMVAGTTNTSGTHTAGPMTSSKRLESKAPKQLLELFEDNEIITAENDVNTEAPKISKSISSLNAGNSSRDDFIPSISNEVNGNINNNKMRPHLPPLSSGNNYYSQSTPALPLLQTKFNKTSKGPPTSGLTTAPTSIEIEIPEELPNSALPTPASADPVLIPSTKARSSTVTAGTPSSSSSIQYKSPSNVPRRLTVSNNRPEHCPSTITNQKLGSAVASNSGISSTPNNSNNYNNNTDSENSRGSSGSNTANSTQMGITNPGNVTKLSTHKASSPSRPLFGVGTSPNRKPAGSPTQNIGHNSTHTNLAPPPTMKPMANSKDNKDILLQPLNSIPSSSTLNTISGNSSNNLTSSNYFSNEKEGSRVNGDFKRNNPNLKLQMPLPTPVVRNKLLDPNTATSQNNNGMPGSAGISTNENINQFGFNTSSASNIPVSMTPISEKHIDFGGKIKRSQSISNRKNSSASEHPLNILGSSVSGNVSGIGNNNVGSNNNSGPNNSVPLSANTGNTTIKANSTTIATSSSAAASTTAPISQQTIPSGTQFNHILSSAATAANSVNSLGFGMCPPPQSLQMEMFLDLESFLPGKQRRVDRKPQVLKELENLLQMFEEGLPCIEHALKEQLISTPIKDNEH

- binding [2]: binds
- binding [3]: binds
B3: Kic1-3HA (wild type) (enzyme, UniProt P38692 1-1080)
chain: B1 chain

- binding [1]: no binding
B4: Kic1 D57A (site A mutant) fused to the GAL4 activation domain (enzyme, UniProt P38692 1-1080)
chain: B1 chain with D57A

More lines, now with the values behind:

B2: HA-tagged Kic1 WDF mutant (kic1-AAA) (enzyme, UniProt P38692 1-1080)
chain: B1 chain with W357A, D358A, F359A
- binding [2]: no binding

B5: GST-Mob2 (full length) (protein, UniProt P43563 1-287)
chain: MSFFNFKAFGRNSKKNKNQPLNVAQPPAMNTIYSSPHSSNSRLSLRNKHHSPKRHSQTSFPAQKSTPQSQQLTSTTPQSQQQEASERSESQQIMFLSEPFVRTALVKGSFKTIVQLPKYVDLGEWIALNVFEFFTNLNQFYGVVAEYVTPDAYPTMNAGPHTDYLWLDANNRQVSLPASQYIDLALTWINNKVNDKNLFPTKNGLPFPQQFSRDVQRIMVQMFRIFAHIYHHHFDKIVHLSLEAHWNSFFSHFISFAKEFKIIDRKEMAPLLPLIESFEKQGKIIYN
- binding [4]: binds
